According to publication PMC6212790:
The other results are listed elsewhere or left out. At the low end of the ranking, values are background and their order means little.

target: T1, GST-Rok-C97-191 (UniProt O34857); assay: protein binding microarray; conditions: Rok is a gene silencer of Bacillus subtilis; high values mean tight binding; most listed sequences are background and not binding sites; double strand, one strand shown;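 note: rank score from −0.5 (least bound) to 0.5 (best bound)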
T1 sequence: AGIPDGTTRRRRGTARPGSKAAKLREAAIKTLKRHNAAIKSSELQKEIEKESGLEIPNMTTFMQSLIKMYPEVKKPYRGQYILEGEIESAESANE

Row | Sequence | binding signal
1 | CCAGTACC | -0.138 E-score
2 | AGTGTTCG | -0.0831 E-score
3 | CTTCCTCC | -0.265 E-score
4 | ACGTGAGG | -0.0106 E-score
5 | TTAGGGAA | -0.113 E-score
6 | CAGGCGGG | -0.342 E-score
7 | GAATCTCC | 0.0847 E-score
8 | AGTACAAC | 0.18 E-score
9 | GCACTGGC | -0.241 E-score
10 | AATCGATC | 0.078 E-score
11 | AAAGCAAT | 0.181 E-score
12 | ATGAGACC | -0.057 E-score
13 | CTTATGTC | 0.034 E-score
14 | ACCATTAA | 0.134 E-score
15 | GCCGCGCC | -0.222 E-score
16 | GGCACTCA | -0.145 E-score
17 | AAGGGAGT | -0.0497 E-score
18 | ACGCGTGC | -0.189 E-score
19 | CCGTAAAA | 0.105 E-score
20 | AGCTCGCG | -0.199 E-score
21 | GGATATAC | 0.288 E-score
22 | CGGTATGC | -0.0795 E-score
23 | ACAGCTGC | -0.269 E-score
24 | ATTGGAAG | -0.0627 E-score

Row | Sequence | binding signal
25 | AACAGTAT | 0.165 E-score
26 | ACCACTAT | 0.189 E-score
27 | GATACCAA | 0.173 E-score
28 | GTATCAGA | -0.0961 E-score
29 | CCTAACAC | -0.0872 E-score
30 | CGTATAAC | 0.152 E-score
31 | CGGGAGAG | -0.236 E-score
32 | ATGGAGGA | -0.0415 E-score
33 | CGCGGTAG | 0.00539 E-score
34 | AGATCCCT | 0.0375 E-score
35 | AATTACGG | 0.205 E-score
36 | AGTGTGTA | 0.0953 E-score
37 | ATCACGCG | 0.0545 E-score
38 | AAACGGTG | -0.0447 E-score
39 | ACAGCTAG | 0.118 E-score
40 | AACGCTTC | -0.296 E-score
41 | GACGTCGA | -0.118 E-score
42 | ACTCAAAT | -0.0178 E-score
43 | GGAACAAC | -0.133 E-score
44 | ACCGCGCC | -0.254 E-score
45 | CTATTCTA | 0.287 E-score
46 | AGACGACC | -0.145 E-score
47 | ATGAGATA | 0.234 E-score
48 | GATAGGTA | 0.158 E-score

Row | Sequence | binding signal
49 | CCTATGTC | 0.00264 E-score
50 | GAATGATA | 0.29 E-score
51 | CATTGCTA | 0.118 E-score
52 | AAACTTGG | -0.108 E-score
53 | AGAGACGA | -0.286 E-score
54 | TTGCAAAA | -0.0136 E-score
55 | AGTCTAGG | -0.139 E-score
56 | AGAACGGA | -0.029 E-score
57 | GTGGTCAA | -0.14 E-score
58 | TCAAAAGA | -0.163 E-score
59 | TCGGAAGA | -0.0901 E-score
60 | GTATATAC | 0.43 E-score
61 | CTTGCGAC | -0.167 E-score
62 | AATACAGC | -0.0291 E-score
63 | CTGAACAG | -0.183 E-score
64 | CGAGGTAG | 0.0918 E-score
65 | GCGTCAGC | -0.296 E-score
66 | CAGGACTG | -0.147 E-score
67 | AGGGTAAG | -0.0906 E-score
68 | GGTTAGGA | -0.165 E-score
69 | ACCGATGA | -0.0368 E-score
70 | CATCTGTC | -0.276 E-score
71 | GAGGACCC | -0.299 E-score
72 | GGCTCTGA | -0.223 E-score

Row | Sequence | binding signal
73 | AGCGAAGC | -0.206 E-score
74 | AGAGCCCC | -0.19 E-score
75 | ATTCGACA | 0.12 E-score
76 | GGGATGAC | 0.0332 E-score
77 | CCGGGAAG | -0.133 E-score
78 | AAAAGCGG | -0.034 E-score
79 | GGGTCACC | -0.279 E-score
80 | AAATCCCG | 0.00351 E-score
81 | CGAAGACG | -0.202 E-score
82 | CTTTGGAA | 0.00643 E-score
83 | GCATAACC | 0.0668 E-score
84 | AGAGACAG | -0.118 E-score
85 | AAGAGCTG | -0.0939 E-score
86 | CCCTGGTC | -0.227 E-score
87 | GGAGCAGA | -0.154 E-score
88 | AGATTGTA | 0.227 E-score
89 | CATTGAGA | -0.0375 E-score
90 | ACGAAGTC | -0.153 E-score
91 | ATAAGGCG | 0.0559 E-score
92 | AACGCATG | -0.0952 E-score
93 | TACTACGA | 0.291 E-score
94 | TACGCGGA | 0.049 E-score
